Data taken from PubChem BioAssay AID504706 (National Center for Advancing Translational Sciences (NCATS), 2011).
The campaign covered roughly 320,000 compounds. About 200 (0.062%) were called active. The inconclusive results got no clear call from the source; some entries with a clear call stand among them for comparison. The call rests on the fitted dose curve; in most records, active means well fitted activation curve with a large enough effect; inconclusive means small, poorly fitted or top-dose-only effect; inactive means no such curve, though single readings can be large or run the other way. No potency is given beside an inconclusive call; the fits are too rough.

Experiment: qHTS assay for re-activators of p53 using a Luc reporter; further: nearly all actives have a fitted effect of over 45% in size
Details: H1299 p53-A138V BP100-luciferase reporter, luminescence, 24 h; series mostly up to 92.2 µM
Summary of the method: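 p53-null H1299 cells stably carrying temperature-sensitive p53-A138V and a BP100-luciferase reporter were pinned with compounds (4-point, 1:5 series) and held 24 hrs at 37 deg C. Luminescence was read 10 min after detection reagent.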
Potency means the concentration at half of the fitted maximal effect; tags describe the fitted curve by direction and shape.

Structure (SMILES)	Potency
COc1ccc(-c2nn(-c3ccccc3)cc2N)cc1	inconclusive [activator, partial curve, poor fit]
COc1ccccc1N1CCN(C(=O)c2cccc(S(=O)(=O)N3CCCCCC3)c2)CC1	inactive
CCOC(=O)c1cnn2c(C)cc(-c3ccc(F)cc3)nc12	inconclusive [activator, partial curve, poor fit]
Cc1ccc(S(=O)(=O)C(C#N)c2nc3ccccc3nc2N2CCC(C)CC2)cc1 (configuration not stated)	inconclusive [activator, partial curve, poor fit]
O=S(=O)(c1ccc(Br)s1)N1CCCCC1	inconclusive [activator, partial curve, poor fit]
COc1ccccc1Nc1cc(C(=O)NCCCN2CCOCC2)c2ccccc2n1	inconclusive [activator, single point]
CC(C)C(=O)NC(c1ccc([N+](=O)[O-])cc1)c1c(O)ccc2ccccc12 (configuration not stated)	inactive
COc1ccccc1NC(=O)C(C)OC(=O)/C=C/c1ccc2ccccc2n1 (configuration not stated)	inconclusive [activator, partial curve, poor fit]
O=c1nccc(N/N=C/c2ccccc2O)[nH]1	inconclusive [activator, partial curve, poor fit]
CC1CCC(NC(=O)Cn2c(=O)[nH]c3ccsc3c2=O)CC1 (configuration not stated)	inconclusive [activator, partial curve, poor fit]
Cc1nnc(SCc2cnc(-c3ccc(C(C)C)cc3)s2)n1C	inconclusive [activator, partial curve, poor fit]
O=C(COC(=O)Cc1c[nH]c2ccccc12)Nc1cc(S(=O)(=O)N2CCOCC2)ccc1Cl	inactive
Cc1ccc(N2CCN(c3ccc(NCc4nc5ccccc5n4C)cc3)CC2)cc1	inactive
COc1ccc(CNCCSc2nnnn2C)cc1OC	inconclusive [activator, single point]
COc1ccc(OCc2ccc(-c3nc4ccccc4c(=O)n3N)o2)cc1	inconclusive [activator, partial curve, poor fit]
O=C(CN1C(=O)c2ccc([N+](=O)[O-])cc2C1=O)NCC1CCCO1 (configuration not stated)	inactive
NC(=O)c1cnn(-c2cccc(Cl)c2)c1N	inactive
Cc1cc(C(=O)Nc2nc3c(s2)CCCC3)cs1	inconclusive [activator, partial curve, poor fit]
Cc1ccc(S(=O)(=O)NC2c3cccc4cccc(c34)C2Sc2nc(C)cc(C)n2)cc1 (configuration not stated)	inactive
COc1ccc2cc(C(=O)/C=C/c3cc(OC)c(OC)c(OC)c3)ccc2c1	inactive
COc1ccc2c(=O)c(-c3ccc4c(c3)OCO4)coc2c1	inconclusive [activator, full curve, poor fit]
Cc1nc2c(-c3ccccc3)cnn2c(N2CCOCC2)c1C	inconclusive [activator, full curve, poor fit]
CC(=O)c1c(C)[nH]c(C(=O)CSc2nnc(-c3ccccc3)o2)c1C	inactive
CCN(CC)C(=O)c1cc(-c2ccc3c(c2)OCO3)on1	inconclusive [activator, partial curve, poor fit]

Structure (SMILES)	Potency
COc1cc(/C=C/C(=O)OCC(=O)Nc2ccc3c(c2)OCO3)ccc1O	inconclusive [activator, partial curve, poor fit]
c1ccc(SCc2nc(-c3ccccn3)no2)cc1	inconclusive [activator, full curve, poor fit]
COC(=O)CNc1c(-c2ccccc2)nc2ccc(Br)cn12	inconclusive [activator, partial curve, poor fit]
Oc1nc(Nc2ccc(F)cc2)sc1/C=C1\C=Nc2ccccc21	inactive
COc1c(Cl)cccc1-c1cn2ccc(C)cc2n1	inconclusive [activator, partial curve, poor fit]
Cc1cc(Cl)ccc1Nc1ncccc1C(N)=O	inconclusive [activator, partial curve, poor fit]
Clc1cccc2sc(N3CCCC3)nc12	inconclusive [activator, full curve, poor fit]
C/C(=N\NC(=O)c1ccc(Br)cc1)C1C(=O)c2ccccc2C1=O	inconclusive [activator, single point]
COc1ccc(-c2nc(CS(=O)CC(=O)NCCCN3CCCC3)c(C)o2)cc1OC (configuration not stated)	inconclusive [activator, single point]
COC(=O)c1ccc(NC(=O)c2ccc3nccnc3c2)cc1	inactive
O=C(N/N=C/c1c(Cl)cccc1Cl)c1ccc(F)cc1	inactive
COc1ccc(C(=O)CSc2nnc(-c3cccnc3)n2Cc2ccco2)cc1	inactive
CC(C)(C)C1CCC(=O)N(CCSc2ccccc2)CC1 (configuration not stated)	inconclusive [activator, partial curve, poor fit]
Cc1ccc(NC(=S)N2CCN(S(=O)(=O)c3ccccc3)CC2)cc1	inactive
Cc1ccccc1COc1ccc(-c2nnn(CC(=O)O)n2)cc1	inactive
Cc1ccc2oc(C(=O)NCCCN3CCOCC3)c(C)c2c1	inconclusive [activator, partial curve, poor fit]
O=C(OCc1nnc(-c2ccccc2)o1)c1ccccc1	inactive
COc1cccc(/C=N/n2c(C3CCCCC3)n[nH]c2=S)c1	inactive
O=C(COC(=O)Cn1cc(C(F)(F)F)ccc1=O)Nc1ccccc1	inactive
COC(=O)c1ccc(N2CCCCC2)c(NS(=O)(=O)c2ccc(C)cc2)c1	inactive
O=C(Nc1nnc(C2CC2)o1)c1ccc(S(=O)(=O)N2CCCc3ccccc32)cc1	inconclusive [activator, partial curve, poor fit]
CCCC(=O)Nc1ccc(NC(=O)c2ccco2)cn1	inconclusive [activator, partial curve, poor fit]
Clc1ccc(-c2nnc(N3CCOCC3)o2)cc1	inactive
CCCCCOc1ccc(Br)cc1/C(C)=N/NC1=NCCN1	inactive

Structure (SMILES)	Potency
COc1ccc(CCNC(=O)CCSCc2ccccc2F)cc1OC	inconclusive [activator, single point]
Cc1c(C(N)=O)c(-c2ccccc2)nn1-c1ccccc1	inactive
CCN1CCN(C(=O)c2cc3cc(F)ccc3[nH]2)CC1	inconclusive [activator, single point]
O=C(CCC(=O)c1ccccc1)NCc1cccc(C(F)(F)F)c1	inconclusive [activator, single point]
CS(=O)(=O)Nc1ccc(C2=NN(C(=O)c3cccc(F)c3)C(c3cccs3)C2)cc1 (configuration not stated)	inactive
COc1ccc2nc(NC(=O)c3ccccc3F)sc2c1	inactive
CC(C)c1ccc(C(N)=S)cc1	inactive
CC(C)OC(=O)c1ccc(NC(=O)c2ccccc2)cc1	inconclusive [activator, partial curve, poor fit]
O=C(Nc1ccc(Cl)cn1)C1CCN(c2ncnc3c2nc2n3CCCCC2)CC1	inconclusive [activator, partial curve, poor fit]
CCOc1ccc(S(=O)(=O)N2CCC(C(=O)N3CCN(c4ccccc4F)CC3)CC2)cc1C	inactive
Cc1ccc(C)c(S(=O)(=O)Nc2ccc(-n3cnnn3)cc2)c1	inactive
CC(C)=CC(=O)N1CCCC(N2CCN(c3ccccc3C)CC2)C1 (configuration not stated)	inactive
Cc1ccccc1CSc1ncc(C#N)c(N)n1	inconclusive [activator, partial curve, poor fit]
CC1CN(C(=O)c2cc3cc([N+](=O)[O-])ccc3oc2=O)CC(C)O1 (configuration not stated)	inconclusive [activator, partial curve, poor fit]
O=C(c1cc(-c2ccc(Cl)cc2)n(-c2ccc(Cl)c(Cl)c2)n1)N1CCOCC1	inactive
Fc1ccc(Nc2ccc3ccccc3n2)c(F)c1	inconclusive [activator, full curve, poor fit]
CC1CC(C)CN(C(=O)c2cc3ccccc3o2)C1 (configuration not stated)	inconclusive [activator, partial curve, poor fit]
Cc1ccc(C)c(CN2CCC(n3nccc3NC(=O)CCCc3ccccc3)CC2)c1	inconclusive [activator, single point]
Cc1ccc2nc(-c3ccc(NC(=O)CSc4nccc(=O)[nH]4)cc3)sc2c1	inconclusive [activator, partial curve, poor fit]
Cc1[nH]c2ccccc2c1C(=O)/C=C\c1ccccc1Cl	inconclusive [activator, partial curve, poor fit]
CC1CCC(NC(=O)c2ccc3nc[nH]c3c2)CC1 (configuration not stated)	inconclusive [activator, single point]
c1ccc2c(c1)Cc1cc(CN3CCOCC3)ccc1-2	inconclusive [activator, partial curve, poor fit]
COc1cccc(-c2nnc(SCC(=O)N3CCOCC3)o2)c1	inconclusive [activator, partial curve, poor fit]
COc1ccc(C(=O)N[C@H](C(=O)Nc2nc3ccccc3[nH]2)C(C)C)cc1	inconclusive [activator, partial curve, poor fit]
